# In the supplement of paper PMC8728848:
# The list shows a part of the results.
# B1: IRp60B (Homo sapiens), Q9UGN4-3 (protein)
# chain: MWLPWALLLLWVPAGDHSELSQNPKQAATQSELHYANLELLMWPLQEKPAPPREVEVEYSTVASPREELHYASVVFDSNTNRIAAQRPREEEPDSDYSVIRKT
# Columns and labels:
# Assay in all cases: glycan array binding signal (z-score within array); higher = stronger binding
# Conditions in all cases: glycan notation: IUPAC condensed, linker removed
# [1] = molecular target: Neu5Ac(a2-3)Gal(b1-4)GlcNAc(b1-3)Gal(b1-4)GlcNAc
# Outline: (§1)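 Negative Z-scores can be read as non-binding. The Z-score is calculated within each array and then averaged across arrays of one protein sequence at different concentrations or buffers and across linkers. Arrays, 3228 in all, were curated from the Consortium for Functional Glycomics database and kept only where the protein sequence was available.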
# [2] = molecular target: Neu5Ac(a2-3)Gal(b1-4)GlcNAc(b1-3)Gal(b1-4)GlcNAc(b1-3)Gal(b1-4)GlcNAc
# Outline: as §1
# [3] = molecular target: Neu5Ac(a2-3)Gal(b1-4)GlcNAc6S
# Outline: as §1
# [4] = molecular target: Neu5Ac(a2-3)Gal(b1-4)[Fuc(a1-3)]GlcNAc
# Outline: as §1
# [5] = molecular target: Neu5Ac(a2-3)Gal(b1-4)[Fuc(a1-3)]GlcNAc(b1-3)Gal
# Outline: as §1
# [6] = molecular target: Neu5Ac(a2-3)Gal(b1-4)[Fuc(a1-3)]GlcNAc(b1-3)Gal(b1-4)GlcNAc
# Outline: as §1
# [7] = molecular target: Neu5Ac(a2-3)Gal(b1-4)[Fuc(a1-3)]GlcNAc(b1-3)Gal(b1-4)[Fuc(a1-3)]GlcNAc(b1-3)Gal(b1-4)[Fuc(a1-3)]GlcNAc
# Outline: as §1
# [8] = molecular target: Neu5Ac(a2-3)Gal(b1-4)[Fuc(a1-3)]GlcNAc6S
# Outline: as §1
# [9] = molecular target: Neu5Ac(a2-3)Gal6S(b1-4)GlcNAc
# Outline: as §1
# Neu5Ac(a2-3)GalNAc = molecular target: Neu5Ac(a2-3)GalNAc
# Outline: as §1
# [10] = molecular target: Neu5Ac(a2-3)[GalNAc(b1-4)]Gal(b1-4)Glc
# Outline: as §1
# [11] = molecular target: Neu5Ac(a2-3)[GalNAc(b1-4)]Gal(b1-4)GlcNAc
# Outline: as §1
# [12] = molecular target: Neu5Ac(a2-3)[Neu5Ac(a2-6)]GalNAc
# Outline: as §1
# Neu5Ac(a2-6)Gal = molecular target: Neu5Ac(a2-6)Gal
# Outline: as §1
# Neu5Ac(a2-6)Gal(b1-4)Glc = molecular target: Neu5Ac(a2-6)Gal(b1-4)Glc
# Outline: as §1
# [13] = molecular target: Neu5Ac(a2-6)Gal(b1-4)GlcNAc
# Outline: as §1
# [14] = molecular target: Neu5Ac(a2-6)Gal(b1-4)GlcNAc(b1-3)Gal(b1-4)GlcNAc
# Outline: as §1
# [15] = molecular target: Neu5Ac(a2-6)Gal(b1-4)GlcNAc(b1-3)Gal(b1-4)[Fuc(a1-3)]GlcNAc(b1-3)Gal(b1-4)[Fuc(a1-3)]GlcNAc
# Outline: as §1
# [16] = molecular target: Neu5Ac(a2-6)Gal(b1-4)GlcNAc6S
# Outline: as §1
# Neu5Ac(a2-6)GalNAc = molecular target: Neu5Ac(a2-6)GalNAc
# Outline: as §1
# Neu5Ac(a2-8)Neu5Ac = molecular target: Neu5Ac(a2-8)Neu5Ac
# Outline: as §1
# [17] = molecular target: Neu5Ac(a2-8)Neu5Ac(a2-3)Gal(b1-4)Glc
# Outline: as §1
# [18] = molecular target: Neu5Ac(a2-8)Neu5Ac(a2-3)[GalNAc(b1-4)]Gal(b1-4)Glc
# Outline: as §1
# [19] = molecular target: Neu5Ac(a2-8)Neu5Ac(a2-8)Neu5Ac
# Outline: as §1
# [20] = molecular target: Neu5Ac(a2-8)Neu5Ac(a2-8)Neu5Ac(a2-3)Gal(b1-4)Glc
# Outline: as §1
# [21] = molecular target: Neu5Ac(a2-8)Neu5Ac(a2-8)Neu5Ac(a2-3)[GalNAc(b1-4)]Gal(b1-4)Glc
# Outline: as §1
# Neu5Ac(b1-6)GalNAc = molecular target: Neu5Ac(b1-6)GalNAc
# Outline: as §1
# [22] = molecular target: Neu5Ac(b2-6)Gal(b1-4)GlcNAc
# Outline: as §1
# [23] = molecular target: Neu5Ac9Ac(a2-6)Gal(b1-4)GlcNAc
# Outline: as §1
# [24] = molecular target: Neu5Gc(a2-3)Gal(b1-3)GlcNAc
# Outline: as §1
# [25] = molecular target: Neu5Gc(a2-3)Gal(b1-3)[Fuc(a1-4)]GlcNAc
# Outline: as §1
# Neu5Gc(a2-3)Gal(b1-4)Glc = molecular target: Neu5Gc(a2-3)Gal(b1-4)Glc
# Outline: as §1
# [26] = molecular target: Neu5Gc(a2-3)Gal(b1-4)GlcNAc
# Outline: as §1
# [27] = molecular target: Neu5Gc(a2-3)Gal(b1-4)[Fuc(a1-3)]GlcNAc
# Outline: as §1
# [28] = molecular target: Neu5Gc(a2-6)Gal(b1-4)GlcNAc
# Outline: as §1
# Neu5Gc(a2-6)GalNAc = molecular target: Neu5Gc(a2-6)GalNAc
# Outline: as §1
binder,measurement,setting,value
B1,glycan array binding signal (z-score),[1],-0.293
same,glycan array binding signal (z-score),[2],0.224
same,glycan array binding signal (z-score),[3],-0.358
same,glycan array binding signal (z-score),[4],-0.444
same,glycan array binding signal (z-score),[5],-0.494
same,glycan array binding signal (z-score),[6],-0.427
same,glycan array binding signal (z-score),[7],0.156
same,glycan array binding signal (z-score),[8],-0.476
same,glycan array binding signal (z-score),[9],-0.352
same,glycan array binding signal (z-score),Neu5Ac(a2-3)GalNAc,3.17
same,glycan array binding signal (z-score),[10],-0.323
same,glycan array binding signal (z-score),[11],-0.259
same,glycan array binding signal (z-score),[12],-0.201
same,glycan array binding signal (z-score),Neu5Ac(a2-6)Gal,-0.304
same,glycan array binding signal (z-score),Neu5Ac(a2-6)Gal(b1-4)Glc,0.954
same,glycan array binding signal (z-score),[13],-0.273
same,glycan array binding signal (z-score),[14],-0.377
same,glycan array binding signal (z-score),[15],1.2
same,glycan array binding signal (z-score),[16],-0.449
same,glycan array binding signal (z-score),Neu5Ac(a2-6)GalNAc,-0.462
same,glycan array binding signal (z-score),Neu5Ac(a2-8)Neu5Ac,-0.306
same,glycan array binding signal (z-score),[17],-0.458
same,glycan array binding signal (z-score),[18],-0.458
same,glycan array binding signal (z-score),[19],-0.355
same,glycan array binding signal (z-score),[20],1.18
same,glycan array binding signal (z-score),[21],-0.469
same,glycan array binding signal (z-score),Neu5Ac(b1-6)GalNAc,-0.432
same,glycan array binding signal (z-score),[22],-0.483
same,glycan array binding signal (z-score),[23],0.049
same,glycan array binding signal (z-score),[24],-0.475
same,glycan array binding signal (z-score),[25],-0.41
same,glycan array binding signal (z-score),Neu5Gc(a2-3)Gal(b1-4)Glc,-0.391
same,glycan array binding signal (z-score),[26],2.84
same,glycan array binding signal (z-score),[27],-0.107
same,glycan array binding signal (z-score),[28],-0.292
same,glycan array binding signal (z-score),Neu5Gc(a2-6)GalNAc,0.328
